Assay results taken from PubChem BioAssay AID1671194 (National Center for Advancing Translational Sciences (NCATS), 2021).
The whole screen tested about 140,000 compounds, of which about 240 (0.17%) were called active. Inconclusive results, whose numbers are uncertain, are shown with a selection of clear calls. Calls follow the shape of the dose curve; as a rule, active = well fitted inhibition curve with a large enough effect; inconclusive = small, poorly fitted or top-dose-only effect; inactive = no such curve, though single readings can be large or run the other way. Potencies of inconclusive entries are doubtful fits and often do not repeat.
Potency is read from the fitted curve at half-maximal effect; tags tell the direction and shape of the fitted curve.

Assay: Primary qHTS assay for inhibitors of alpha-synuclein gene (SNCA) expression; also: nearly all actives have a fitted effect of over 45% in size
Settings: HEK-293 SNCA-luciferase knock-in, luminescence, 24 h; series mostly up to 57.2 µM
Excerpt: Assay Submitter (PI): Daniel R. Scoles Ph.D.
Department of Neurology, University of Utah, Salt Lake City, Utah
Accumulation of alpha-synuclein is a main underlying pathological feature of Parkinson's disease (PD) and alpha-synucleinopathies, for which lowering expression of the alpha-synuclein gene (SNCA) is a potential therapeutic avenue. Using a cell-based luciferase reporter of SNCA expression we performed a quantitative high throughput screen (qHTS) of 155,885 compounds in dose response. The screening assay was generated using genome editing to insert the luciferase gene downstream and in frame of the SNCA gene in HEK-293 cells (1). A viability counterscreen using GF-AFC was used to eliminate cytotoxic and false positive compounds. After in silico analysis (clustering, removal of frequent hitter nuisance chemotypes), inhibitor compounds from the primary screen were selected for follow up and re-tested at 11-doses in the SNCA-luc cells (luciferase and GF-AFC confirmation), and in CMV-luc expressing cell line to flag general transcriptional repressors.
Described herein are the results of the primary screen for SNCA inhibitors; decrease in luciferase signal (inhibition of the SNCA gene expression) is the desired output for this assay.
1. Dansithong, W., Paul, S., Scoles, D. R., Pulst, S. M., and Huynh, D. P. (2015) Generation of SNCA Cell Models Using Zinc Finger Nuclease (ZFN) Technology for Efficient High-Throughput Drug Screening. PLoS ONE 10, e0136930.
SEQUENCE No. (e.g., 1, 2, 3, etc.); […] (e.g., Cells, Incubation, Reagent, etc.); VALUE; DESCRIPTION
1; Cells; 4 uL; Dispense 1500 HEK-293-SNCA-luc cells/well into Greiner 1536-well white / solid bottom tissue culture treated plate. The plate was covered with metal lids with gas-exchange holes.
2; Incubate; 24 hours; Incubate at 37C, 5% CO2, 95% RH.
3; Compounds; 23 nL; Compounds and controls were transferred via a Kalypsys Pin Tool (Wako USA) equipped with a 1536-slotted pin array. The plate was covered with metal lids with gas-exchange holes.
4; Incubate; 24 hours; Incubate at 37C, 5% CO2, 95% RH.
5; Dispense; 1 uL; Dispense Gly-Phe-7-amino-4-trifluoromethylcoumarin (GF-AFC, prepared at 125 uM in PBS) was added. The plate was covered with metal lids with gas-exchange holes.
6; Incubate; 30 min; Incubate at 37C, 5% CO2.
7; Detector; Fluorescence; Measure fluorescence with ViewLux microplate reader (PerkinElmer) equipped with 405/10 excitation and 540/25 emission filters.
8; Dispense; 3 uL; Dispense ONE-Glo ([…]) lucifase detection reagent was added to each well. Plates were covered with metal lids with gas-exchange holes.
9; Incubate; 15 min; Incubate at room temperature.
10; Detector; Luminescence; Measure luminescence with ViewLux microplate reader (PerkinElmer) equipped with clear filters.
NOTES (numbers refer to sequence above)
1; HEK-293-SNCA-luc were cultured and suspended in phenol-red free DMEM (4.5 g/L glucose, 25 mM HEPES, cat #21063 (Thermo)).
3; Compounds were added to the assay plate in an 11-point intra plate dose response, 1:3 titration in DMSO with a final concentration range of […]. Vehicle-only plates, with DMSO being pin-transferred to every well, were inserted at the beginning of screening runs to confirm expected assay performance. Activity was normalized to wells containing medium only (-100% activity, full inhibition) and SNCA-luc cells treated with DMSO vehicle control (0% activity), contained on the same plate as test samples.
10; Signals were analyzed, and dose-response curves were fit using the Hill equation. Compounds in curve classes -1.1, -1.2, -2.1, -2.2 in the SNCA-luc assay were considered active. Compounds were eliminated from further consideration if also active (curve class -1.1, -1.2, -1.3, -1.4, -2.1, -2.2, -2.3, -2.4) in the GF-AFC cytotoxicity assay.
With `CN1Cc2cccn2CC1CNC(=O)c1ccnn1C` (stereo unspecified) the Potency was inconclusive: 39.8 µM [inhibitor, partial curve, poor fit]. With `Cn1cccc1C(=O)N1CCC(N2C(=O)C3(CCCC3)C2c2ccccc2)CC1` (stereo unspecified) the Potency was inconclusive: 31.6 µM [inhibitor, single point]. For `CCOC(=O)c1cccc(NC(=O)c2cc(C)nc3c2c(C)nn3-c2ccc(C)cc2)c1`, the Potency was inconclusive: 39.8 µM [inhibitor, single point]. In the case of `COc1cc(Nc2nc3ccc(Cl)cc3nc2-n2nc(C)cc2C)cc(OC)c1`, the Potency is reported as inconclusive: 2.51 µM [inhibitor, single point]. With `COc1ccc(CC(=O)N[C@H]2CCOC[C@H]2C2CCOCC2)c(OC)c1` the Potency was inconclusive: 28.2 µM [inhibitor, partial curve, poor fit]. In the case of `O=C(CN1C(=O)COc2ccc(S(=O)(=O)NC3CCCC3)cc21)NCc1ccccc1Cl`, the Potency is reported as inconclusive: 6.31 µM [inhibitor, single point]. In the case of `O=C(CCC1CCCN(Cc2cc3ccccc3s2)C1)Nc1ccccc1F` (stereo unspecified), the Potency is reported as inconclusive: 17.8 µM [inhibitor, single point]. For `O=C(c1ccc2c(c1)OCO2)N1CCN(c2cc(-c3ccc(F)cc3)[nH]n2)CC1`, the Potency was inconclusive: 10 µM [inhibitor, partial curve, poor fit]. For `COc1cc(N2CCC(N3CCN(C)CC3)CC2)ccc1Nc1ncnc(Nc2ccccc2S(=O)(=O)C(C)C)n1`, the Potency was inconclusive: 42.9 µM [inhibitor, single point]. For `Cc1ccc(-c2ccc(CN)cc2)cc1Cl`, the Potency was inconclusive: 44.7 µM [inhibitor, single point]. In the case of `Cc1ccccc1OCCSc1nnc(-c2cccs2)o1`, the Potency is reported as inconclusive: 17.8 µM [inhibitor, single point]. For `O=C(NCc1nnc2ccc(-c3ccccc3)nn12)c1ccncc1`, the Potency was inconclusive: 12.6 µM [inhibitor, partial curve, poor fit]. With `Cc1ccc(C(=O)N2CCN(c3nnc4cccc(C)n34)CC2)cc1F` the Potency was “inactive”. In the case of `CCC(C(=O)NCCC(C)C)N(C(=O)Cn1nnc(-c2ccc(C)cc2)n1)c1cccc(O)c1` (stereo unspecified), the Potency is reported as inconclusive: 39.8 µM [inhibitor, single point]. With `O=[S+]([O-])(NC1CCN(c2ccnc3ccnn23)CC1)c1cccs1` the Potency was inconclusive: 8.91 µM [inhibitor, partial curve, poor fit]. For `Cc1ccc2cc(CCC(=O)N3CCN(c4ccccn4)CC3)c(=O)[nH]c2c1`, the Potency was “inactive”. For `Cc1ccc2[nH]cc(C(c3ccccc3)c3ccc(Cl)s3)c2c1` (stereo unspecified), the Potency was inconclusive: 17.8 µM [inhibitor, partial curve, poor fit]. In the case of `CCOC(=O)c1c(C)[nH]c(C)c1S(=O)(=O)N1CCCC(C(=O)N2CCN(c3cccc(Cl)c3)CC2)C1` (stereo unspecified), the Potency is reported as inconclusive: 39.8 µM [inhibitor, single point]. With `COc1ncccc1CN1CCC2(CC1)OC(=O)N(Cc1ccccc1C#N)C2(C)c1ccccc1` (stereo unspecified) the Potency was “inactive”. For `O=C1c2ccccc2-[n+]2ccc3c([nH]c4ccccc43)c21`, the Potency was active: 3.04 µM. For `COc1nccnc1NC1CCN(C(=O)Cc2c(C)noc2C)CC1`, the Potency was “inactive”. For `COc1ccc(F)c(CN2CCCN3CCC[C@H]3C2)c1Cl`, the Potency was inconclusive: 39.8 µM [inhibitor, single point]. For `CCC(=O)N1CCC2(CC1)NCCc1c2[nH]c2ccccc12`, the Potency was inconclusive: 25.1 µM [inhibitor, single point]. For `CSc1ccc(CCNC(=O)CN2C(=O)COc3ccc(S(=O)(=O)N4CCCCCC4)cc32)cc1`, the Potency was inconclusive: 15.8 µM [inhibitor, partial curve, poor fit]. With `O=C(C1CCCN1C(=O)Nc1ccc(Cl)cc1)N1CCC(c2ccccc2)CC1` (stereo unspecified) the Potency was “inactive”. In the case of `Cc1cccn2c(=O)c(C(=O)NC(C)c3ccccc3)c(O)nc12` (stereo unspecified), the Potency is reported as inconclusive: 22.4 µM [inhibitor, single point]. For `COc1cc(F)ccc1-c1cc2c(ccn2CC2CCN(C)CC2)c(N2CCOCC2)n1`, the Potency was “inactive”. In the case of `CCN1c2cc(C(=O)Nc3cccc(OC)c3)ccc2C(=O)N2CCCCC21` (stereo unspecified), the Potency is reported as “inactive”. In the case of `COC1CCC(C(=O)N2CC(COc3ccccc3)C3(C2)CN(c2ccccc2)C3)CC1` (stereo unspecified), the Potency is reported as inconclusive: 50.1 µM [inhibitor, single point]. In the case of `Cc1ccc(NC(=O)C2CCN(c3ccnc4ccnn34)CC2)cc1`, the Potency is reported as “inactive”. For `CC(=O)N1CC2(CCN(Cc3c[nH]c4ccccc34)CC2)Cc2ccccc21`, the Potency was inconclusive: 7.94 µM [inhibitor, partial curve, poor fit]. For `O=C(c1ccccc1Cl)N1CCC(c2nc3ccccc3s2)CC1`, the Potency was inconclusive: 7.94 µM [inhibitor, single point]. For `COc1ccc(-c2nc(N3CCOCC3)cc3c2CN(Cc2cnn(C)c2)C3=O)cn1`, the Potency was “inactive”. With `Cc1ccc(N(CC(=O)NCCSc2ccccc2)S(=O)(=O)c2ccc(F)cc2)cc1` the Potency was inconclusive: 39.8 µM [inhibitor, single point]. For `COc1ccccc1Cn1c(=O)c(C(=O)NCCc2ccc(Cl)cc2)nc2cccnc21`, the Potency was inconclusive: 20 µM [inhibitor, single point]. For `O=C(c1ccc2c(c1)N(Cc1c(F)cccc1Cl)C(=O)c1ccccc1S2)N1CCCC1`, the Potency was inconclusive: 1.26 µM [inhibitor, full curve, poor fit]. For `Cc1cnccc1CN(C)Cc1ccc2c(C)cc(=O)oc2c1`, the Potency was “inactive”. In the case of `CC1=C[C@@H](CNC(=O)c2cccnc2)[C@H](C(C)C)C[C@H]1CC(=O)NC1CCCC1`, the Potency is reported as inconclusive: 35.5 µM [inhibitor, partial curve, poor fit]. In the case of `Cc1cc(Nc2nc(N[C@@H](C)c3ccc(F)cc3)c(C#N)cc2F)n[nH]1`, the Potency is reported as inconclusive: 7.64 µM [inhibitor, partial curve, poor fit]. In the case of `O=C1C(=O)N(C2CCNCC2)CCN1Cc1ccccc1`, the Potency is reported as inconclusive: 39.8 µM [inhibitor, single point]. In the case of `CCOC(=O)c1cc(-c2ccccc2)n(CC(=O)Nc2ccccc2OCC)c1C`, the Potency is reported as inconclusive: 3.98 µM [inhibitor, full curve].
